These results are taken from the supplement of paper PMC4967469.

What all share (assay): Viability of human cancer cell lines after 72 h of drug (GDSC screen)
Compound in one experiment: CCc1cc(Nc2nccc(-c3c(-c4ccc(OC)c(C(=O)Nc5c(F)cccc5F)c4)nc4ccccn34)n2)c(OC)cc1N1CCC(N2CCN(S(C)(=O)=O)CC2)CC1 [GSK-1904529A]
To be noted: top dose 1.024 µM; top dose inferred. As to the method:
(§1)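 Human cancer cell lines in 384-well plates, medium with 10% serum, drug for 72 h over a 256-fold dose range (nine 2-fold or five 4-fold steps up to the top dose). Adherent lines were fixed and stained with the nucleic acid dye Syto60, suspension lines read with resazurin; signal relative to control wells, capped at 0 and 100%. One two-parameter sigmoid per drug and line, fitted in a mixed model over all curves with the slope shared within a line.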

Compound in a further experiment: Cn1cncc1[C@@](N)(c1ccc(Cl)cc1)c1ccc2c(c1)c(-c1cccc(Cl)c1)cc(=O)n2C [Tipifarnib]
To be noted: top dose 16 µM; top dose inferred. As to the method:
as §1

Compound in a further experiment: COc1ccccc1S(=O)(=O)Nc1ccc2c(c1)CN(C)C(=O)N2 [PFI-1]
To be noted: top dose 10 µM; top dose inferred. How it is done: as §1

Compound in the next experiment: COc1cc(C)c(Sc2cnc(NC(=O)c3ccc(CNC(C)C(C)(C)C)cc3)s2)cc1C(=O)N1CCN(C(C)=O)CC1 [BMS-509744]
To be noted: top dose 10.24 µM; top dose inferred. As to the method:
as §1

Compound in another experiment: CCN1CCN(Cc2ccc(NC(=O)c3ccc(C)c(Oc4ccnc5[nH]ccc45)c3)cc2C(F)(F)F)CC1 [NG-25]
To be noted: top dose 10.24 µM; top dose inferred. As to the method: as §1

Lines with a small IC50 respond at low doses; a limit (>, <) means that the fit lies beyond the doses tested. For AUC the same curve is integrated over the 256-fold range of doses and scaled to a fraction: 1 means no effect, lower means more sensitive. An inferred top dose is not printed in the source and was worked back from the curve model.

As usually defined, the IC50 is the concentration at which inhibition is half-maximal.

Regarding SK-MM-2 (myeloma, suspension), the AUC worked out at 0.986 with GSK-1904529A; 0.781 with Tipifarnib; 0.835 with PFI-1; 0.885 with BMS-509744; 0.819 with NG-25. Moreover, the half-maximal inhibitory concentration (IC50) with GSK-1904529A is over 1.02 µM; with Tipifarnib, 6.92 µM; in the experiment with PFI-1 it was 6.98 µM; in the experiment with BMS-509744, over 10.2 µM; with NG-25, 6.16 µM.
On to NCI-H720 (lung carcinoid, suspension), for which the AUC with GSK-1904529A came out at 0.992; with Tipifarnib it was 0.991; with PFI-1, 0.945; with BMS-509744, 0.986; in the experiment with NG-25 it was 0.989. Besides, the IC50 in the experiment with GSK-1904529A was over 1.02 µM; with Tipifarnib, over 16 µM; with PFI-1, over 10 µM; with BMS-509744, over 10.2 µM; with NG-25, over 10.2 µM.
Regarding MRK-nu-1 (breast, suspension), the AUC turned out to be 0.982 with GSK-1904529A; 0.488 with Tipifarnib; 0.989 in the experiment with PFI-1; 0.862 in the experiment with BMS-509744; 0.842 with NG-25. Also, the IC50 in the experiment with GSK-1904529A was over 1.02 µM; in the experiment with Tipifarnib it was 0.93 µM; in the experiment with PFI-1, over 10 µM; with BMS-509744, 7.64 µM; with NG-25, 6.37 µM.
On to MOLP-8 (myeloma, suspension), for which the AUC with GSK-1904529A came to 0.981; with Tipifarnib, 0.207; in the experiment with PFI-1 it was 0.68; in the experiment with BMS-509744 it was 0.653; with NG-25, 0.661. Also, the IC50 with GSK-1904529A is over 1.02 µM; in the experiment with Tipifarnib it was 0.143 µM; in the experiment with PFI-1 it was 1.94 µM; in the experiment with BMS-509744, 1.66 µM; with NG-25 it was 1.76 µM.
For NB5 (neuroblastoma, adherent), the AUC with GSK-1904529A turned out to be 0.985; in the experiment with Tipifarnib it was 0.943; with PFI-1, 0.904; in the experiment with BMS-509744 it was 0.931; in the experiment with NG-25 it was 0.825. For the same cell line, the half-maximal inhibitory concentration (IC50) was over 1.02 µM in the experiment with GSK-1904529A; over 16 µM with Tipifarnib; over 10 µM with PFI-1; over 10.2 µM in the experiment with BMS-509744; 6.26 µM with NG-25.
Take “Ramos-2G6-4C10 (Burkitt lymphoma, suspension)”: the AUC was 0.988 with GSK-1904529A; 0.888 with Tipifarnib; 0.885 with PFI-1; 0.922 with BMS-509744; 0.775 with NG-25. Also, the IC50 is over 1.02 µM with GSK-1904529A; 13.5 µM with Tipifarnib; 8.15 µM with PFI-1; over 10.2 µM with BMS-509744; 3.47 µM with NG-25.
Turning to CL-11 (large intestine, adherent), the AUC with GSK-1904529A is 0.987; in the experiment with Tipifarnib, 0.977; in the experiment with PFI-1, 0.858; in the experiment with BMS-509744, 0.982; in the experiment with NG-25 it was 0.96. In addition, the half-inhibitory concentration (IC50) is over 1.02 µM with GSK-1904529A; over 16 µM in the experiment with Tipifarnib; 9.9 µM in the experiment with PFI-1; over 10.2 µM with BMS-509744; over 10.2 µM in the experiment with NG-25.
“KCL-22 (chronic myeloid leukaemia, suspension)”: the AUC with GSK-1904529A was determined as 0.991; with Tipifarnib, 0.761; with PFI-1, 0.855; in the experiment with BMS-509744, 0.949; with NG-25, 0.026. The IC50 was over 1.02 µM with GSK-1904529A; 4.84 µM in the experiment with Tipifarnib; 6.06 µM with PFI-1; over 10.2 µM in the experiment with BMS-509744; under 0.04 µM in the experiment with NG-25.
For GI-ME-N (neuroblastoma, adherent), the AUC in the experiment with GSK-1904529A was found to be 0.97; with Tipifarnib it was 0.907; with PFI-1, 0.732; in the experiment with BMS-509744, 0.737; with NG-25, 0.742. Moreover, the IC50 in the experiment with GSK-1904529A is over 1.02 µM; in the experiment with Tipifarnib it was over 16 µM; in the experiment with PFI-1 it was 3.73 µM; in the experiment with BMS-509744 it was 3.99 µM; with NG-25, 4.15 µM.
For “MEG-01 (chronic myeloid leukaemia, suspension)”, the AUC with GSK-1904529A stood at 0.988; with Tipifarnib, 0.651; in the experiment with PFI-1, 0.765; with BMS-509744, 0.969; with NG-25, 0.034. Besides, the IC50 with GSK-1904529A is over 1.02 µM; in the experiment with Tipifarnib, 2.55 µM; in the experiment with PFI-1, 3.45 µM; in the experiment with BMS-509744, over 10.2 µM; with NG-25, under 0.04 µM.
With D-283MED (medulloblastoma, adherent), the AUC worked out at 0.991 with GSK-1904529A; 0.847 with Tipifarnib; 0.943 in the experiment with PFI-1; 0.931 with BMS-509744; 0.991 with NG-25. Also, the half-maximal inhibitory concentration (IC50) in the experiment with GSK-1904529A is over 1.02 µM; with Tipifarnib, 10.3 µM; with PFI-1 it was over 10 µM; with BMS-509744, over 10.2 µM; with NG-25, over 10.2 µM.
Take EW-24 (Ewing sarcoma, semi-adherent): the AUC with GSK-1904529A was determined as 0.992; with Tipifarnib, 0.973; with PFI-1, 0.958; with BMS-509744, 0.99; with NG-25, 0.987. In addition, the IC50 with GSK-1904529A is over 1.02 µM; with Tipifarnib, over 16 µM; with PFI-1 it was over 10 µM; with BMS-509744 it was over 10.2 µM; with NG-25, over 10.2 µM.
